# Measurements as given in the supplement of paper PMC8728848.
# This is one part of the list.
# B1: PNA (Arachis hypogaea), P02872 (protein)
# chain: MKPFCVFLTFFLLLAASSKKVDSAETVSFNFNSFSEGNPAINFQGDVTVLSNGNIQLTNLNKVNSVGRVLYAMPVRIWSSATGNVASFLTSFSFEMKDIKDYDPADGIIFFIAPEDTQIPAGSIGGGTLGVSDTKGAGHFVGVEFDTYSNSEYNDPPTDHVGIDVNSVDSVKTVPWNSVSGAVVKVTVIYDSSTKTLSVAVTNDNGDITTIAQVVDLKAKLPERVKFGFSASGSLGGRQIHLIRSWSFTSTLITTTRRSIDNNEKKIMNMASA
# Columns and labels:
# Test in all cases: glycan array binding signal (z-score within array); higher = stronger binding
# Conditions in all cases: glycan notation: IUPAC condensed, linker removed
# [1] = target: Gal(b1-3)GlcNAc(b1-3)Gal(b1-4)[Fuc(a1-3)]GlcNAc
# In short: (§1)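 Glycan array data were curated from 3228 arrays in the Consortium for Functional Glycomics database and kept only where the protein sequence was available. Glycan names were converted to IUPAC-condensed notation, and columns mapping to the same glycan were averaged. The binding signal is a within-array Z-score, averaged across arrays of the same protein sequence at different concentrations or buffers and across linkers. Negative Z-scores can be read as non-binding.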
# [2] = target: Gal(b1-3)GlcNAc(b1-3)Gal(b1-4)[Fuc(a1-3)]GlcNAc(b1-3)Gal(b1-4)Glc
# In short: as §1
# [3] = target: Gal(b1-3)GlcNAc(b1-3)Gal(b1-4)[Fuc(a1-3)]GlcNAc(b1-6)[Gal(b1-3)GlcNAc(b1-3)]Gal(b1-4)Glc
# In short: as §1
# [4] = target: Gal(b1-3)GlcNAc(b1-3)GalNAc
# In short: as §1
# [5] = target: Gal(b1-3)GlcNAc(b1-3)[Fuc(a1-3)[Gal(b1-4)]GlcNAc(b1-6)]Gal(b1-4)Glc
# In short: as §1
# [6] = target: Gal(b1-3)GlcNAc(b1-3)[Fuc(a1-3)[Gal(b1-4)]GlcNAc(b1-6)]Gal(b1-4)]GlcNAc(b1-6)[Gal(b1-4)]GlcNAc(b1-3)]Gal(b1-4)Glc
# In short: as §1
# [7] = target: Gal(b1-3)GlcNAc(b1-3)[Gal(b1-4)GlcNAc(b1-6)]Gal(b1-4)Glc
# In short: as §1
# [8] = target: Gal(b1-3)GlcNAc(b1-3)[Gal(b1-4)GlcNAc(b1-6)]Gal(b1-4)GlcNAc(b1-6)[Gal(b1-3)GlcNAc(b1-3)]Gal(b1-4)Glc
# In short: as §1
# [9] = target: Gal(b1-3)GlcNAc(b1-6)Gal(b1-4)GlcNAc
# In short: as §1
# [10] = target: Gal(b1-3)GlcNAc(b1-6)GalNAc
# In short: as §1
# [11] = target: Gal(b1-3)GlcNAc(b1-6)[Gal(b1-3)]GalNAc
# In short: as §1
# Gal(b1-3)GlcNAc6S = target: Gal(b1-3)GlcNAc6S
# In short: as §1
# [12] = target: Gal(b1-3)[Fuc(a1-4)]GlcNAc
# In short: as §1
# [13] = target: Gal(b1-3)[Fuc(a1-4)]GlcNAc(b1-2)Man
# In short: as §1
# [14] = target: Gal(b1-3)[Fuc(a1-4)]GlcNAc(b1-2)Man(a1-3)[Gal(b1-3)[Fuc(a1-4)]GlcNAc(b1-2)Man(a1-6)]Man(b1-4)GlcNAc(b1-4)GlcNAc
# In short: as §1
# [15] = target: Gal(b1-3)[Fuc(a1-4)]GlcNAc(b1-2)Man(a1-3)[Gal(b1-3)[Fuc(a1-4)]GlcNAc(b1-2)Man(a1-6)]Man(b1-4)GlcNAc(b1-4)[Fuc(a1-6)]GlcNAc
# In short: as §1
# [16] = target: Gal(b1-3)[Fuc(a1-4)]GlcNAc(b1-3)Gal(b1-3)[Fuc(a1-4)]GlcNAc
# In short: as §1
# [17] = target: Gal(b1-3)[Fuc(a1-4)]GlcNAc(b1-3)Gal(b1-4)Glc
# In short: as §1
# [18] = target: Gal(b1-3)[Fuc(a1-4)]GlcNAc(b1-3)Gal(b1-4)GlcNAc
# In short: as §1
# [19] = target: Gal(b1-3)[Fuc(a1-4)]GlcNAc(b1-3)Gal(b1-4)[Fuc(a1-3)]Glc
# In short: as §1
# [20] = target: Gal(b1-3)[Fuc(a1-4)]GlcNAc(b1-3)Gal(b1-4)[Fuc(a1-3)]GlcNAc
# In short: as §1
# [21] = target: Gal(b1-3)[Fuc(a1-4)]GlcNAc(b1-3)Gal(b1-4)[Fuc(a1-3)]GlcNAc(b1-3)Gal(b1-4)Glc
# In short: as §1
# [22] = target: Gal(b1-3)[Fuc(a1-4)]GlcNAc(b1-3)Gal(b1-4)[Fuc(a1-3)]GlcNAc(b1-6)[Gal(b1-3)[Fuc(a1-4)]GlcNAc(b1-3)]Gal(b1-4)Glc
# In short: as §1
# [23] = target: Gal(b1-3)[Fuc(a1-4)]GlcNAc(b1-3)[Fuc(a1-3)[Gal(b1-4)]GlcNAc(b1-6)]Gal(b1-4)Glc
# In short: as §1
# [24] = target: Gal(b1-3)[Fuc(a1-4)]GlcNAc(b1-6)GalNAc
# In short: as §1
# [25] = target: Gal(b1-3)[GlcNAc(b1-6)]GalNAc
# In short: as §1
# [26] = target: Gal(b1-3)[Neu5Ac(a2-6)]GalNAc
# In short: as §1
# [27] = target: Gal(b1-3)[Neu5Ac(a2-6)]GlcNAc(b1-3)Gal(b1-4)Glc
# In short: as §1
# [28] = target: Gal(b1-3)[Neu5Ac(a2-6)]GlcNAc(b1-4)Gal(b1-4)Glc
# In short: as §1
# [29] = target: Gal(b1-3)[Neu5Ac(a2-6)]GlcNAc(b1-6)Gal(b1-4)Glc
# In short: as §1
# [30] = target: Gal(b1-3)[Neu5Ac(b2-6)]GalNAc
# In short: as §1
# Gal(b1-4)Gal = target: Gal(b1-4)Gal
# In short: as §1
# [31] = target: Gal(b1-4)GalNAc(a1-3)[Fuc(a1-2)]Gal(b1-4)GlcNAc
# In short: as §1
# [32] = target: Gal(b1-4)GalNAc(b1-3)[Fuc(a1-2)]Gal(b1-4)GlcNAc
# In short: as §1
# Gal(b1-4)Glc = target: Gal(b1-4)Glc
# In short: as §1
# Gal(b1-4)Glc6S = target: Gal(b1-4)Glc6S
# In short: as §1
# Gal(b1-4)GlcNAc = target: Gal(b1-4)GlcNAc
# In short: as §1
# [33] = target: Gal(b1-4)GlcNAc(a1-6)Gal(b1-4)GlcNAc
# In short: as §1
binder,measurement,setting,value
B1,glycan array binding signal (z-score),[1],-0.223
same,glycan array binding signal (z-score),[2],0.747
same,glycan array binding signal (z-score),[3],1.06
same,glycan array binding signal (z-score),[4],-0.159
same,glycan array binding signal (z-score),[5],0.336
same,glycan array binding signal (z-score),[6],1.47
same,glycan array binding signal (z-score),[7],0.359
same,glycan array binding signal (z-score),[8],0.601
same,glycan array binding signal (z-score),[9],-0.25
same,glycan array binding signal (z-score),[10],-0.472
same,glycan array binding signal (z-score),[11],1.57
same,glycan array binding signal (z-score),Gal(b1-3)GlcNAc6S,-0.297
same,glycan array binding signal (z-score),[12],-0.147
same,glycan array binding signal (z-score),[13],-0.096
same,glycan array binding signal (z-score),[14],-0.037
same,glycan array binding signal (z-score),[15],-0.059
same,glycan array binding signal (z-score),[16],-0.193
same,glycan array binding signal (z-score),[17],-0.195
same,glycan array binding signal (z-score),[18],-0.149
same,glycan array binding signal (z-score),[19],-0.195
same,glycan array binding signal (z-score),[20],-0.198
same,glycan array binding signal (z-score),[21],-0.195
same,glycan array binding signal (z-score),[22],-0.195
same,glycan array binding signal (z-score),[23],-0.195
same,glycan array binding signal (z-score),[24],-0.599
same,glycan array binding signal (z-score),[25],3.79
same,glycan array binding signal (z-score),[26],0.717
same,glycan array binding signal (z-score),[27],0.047
same,glycan array binding signal (z-score),[28],-0.232
same,glycan array binding signal (z-score),[29],-0.197
same,glycan array binding signal (z-score),[30],1.61
same,glycan array binding signal (z-score),Gal(b1-4)Gal,-0.213
same,glycan array binding signal (z-score),[31],-0.054
same,glycan array binding signal (z-score),[32],-0.104
same,glycan array binding signal (z-score),Gal(b1-4)Glc,-0.074
same,glycan array binding signal (z-score),Gal(b1-4)Glc6S,-0.154
same,glycan array binding signal (z-score),Gal(b1-4)GlcNAc,-0.17
same,glycan array binding signal (z-score),[33],-0.152
